Data taken from PubChem BioAssay AID1159614 (National Center for Advancing Translational Sciences (NCATS), 2016).
The campaign covered roughly 45,000 compounds. About 65 (0.1%) were called active. Calls follow the shape of the dose curve; as a rule, active = well fitted activation curve with a large enough effect; inconclusive = small, poorly fitted or top-dose-only effect; inactive = no such curve, though single readings can be large or run the other way. This is one part of the list.

Molecular target: Galactocerebrosidase (Homo sapiens) (UniProt P54803)
Experiment: A Novel Cell-Based Assay to Identify Small Molecules for B -Galactocerebrosidase; also: 0% is about no effect; nearly all actives have a fitted effect of over 65% in size
Conditions: 145M-Twi-hGALC-G270D cells, HMU-beta-Gal fluorescence, 48 h; series mostly up to 57.5 µM; activation: at the top concentration
Procedure, shortened: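 qHTS, 1536-well; 145M-Twi-hGALC-G270D cells (WT line also made) in DMEM/F12 + 10% FBS; compound incubation on live cells; HMU-β-gal 0.1 mM final, pH 5.2, NaTC; carbonate stop; fluorescence increase = enhanced residual activity.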

UniProt P54803, sequence (P54803 whole entry, looked up): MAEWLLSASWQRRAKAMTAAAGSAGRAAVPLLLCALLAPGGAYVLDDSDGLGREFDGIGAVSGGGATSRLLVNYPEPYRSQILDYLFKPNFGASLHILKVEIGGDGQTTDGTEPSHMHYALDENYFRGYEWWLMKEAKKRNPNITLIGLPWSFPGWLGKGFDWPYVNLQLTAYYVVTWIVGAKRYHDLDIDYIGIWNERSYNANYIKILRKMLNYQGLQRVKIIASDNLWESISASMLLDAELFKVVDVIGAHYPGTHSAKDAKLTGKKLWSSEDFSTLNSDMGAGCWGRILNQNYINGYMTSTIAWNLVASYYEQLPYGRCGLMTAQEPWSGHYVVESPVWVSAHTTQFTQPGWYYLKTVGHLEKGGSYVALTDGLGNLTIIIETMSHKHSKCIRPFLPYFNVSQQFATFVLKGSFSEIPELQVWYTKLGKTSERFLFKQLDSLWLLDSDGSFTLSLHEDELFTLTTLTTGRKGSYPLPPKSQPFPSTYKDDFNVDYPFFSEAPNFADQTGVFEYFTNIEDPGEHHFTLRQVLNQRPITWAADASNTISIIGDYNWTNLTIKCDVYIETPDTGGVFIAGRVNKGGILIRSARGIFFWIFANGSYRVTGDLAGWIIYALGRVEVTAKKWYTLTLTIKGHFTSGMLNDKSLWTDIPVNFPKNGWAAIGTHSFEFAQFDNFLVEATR

activation, inactive:
COc1ccc(-c2nc(C)c(CCNC(=O)C(=O)Nc3cc(C)cc(C)c3)s2)cc1OC -13.1%
CCCN(CCC)CCNC(=O)c1ccc2c(c1)NC(=O)C(CS(=O)(=O)Cc1cccc(Br)c1)N2 (stereo not drawn) -4.91%
Cc1sc2ncn(CC(=O)N3CCN(c4cccc(Cl)c4)CC3)c(=O)c2c1S(=O)(=O)N1CCN(c2ncccn2)CC1 8.07%
COc1ccccc1N1CCN(S(=O)(=O)CCNC(=O)COc2ccc(C(C)C)cc2)CC1 -11.8%
Cc1cccc(N2CCN(C(=O)c3cc4c(=O)n(C)c5ccccc5c4s3)CC2C)c1 (stereo not drawn) -8.38%
CC(=O)N1c2ccc(S(=O)(=O)NCC3CCC(C(=O)Nc4cccc(C)c4C)CC3)cc2CC1C (stereo not drawn) -18.2%
Cc1ccccc1C(=O)Nc1c(C)nc(Nc2ccccc2)nc1Nc1ccccc1 -9.69%
CCOCCCNC(=O)C(c1ccc(OC)cc1)N(Cc1ccc2c(c1)OCO2)C(=O)c1ccccc1O (stereo not drawn) -16.4%
Cc1ccc(NC(=O)Cn2nc(C)n3cccc3c2=O)c(C)c1 -23.5%
CN(C)CCn1c2c(c(SCC(=O)Nc3ccc(F)cc3F)nc1=O)CCC2 -18.6%
CCCCn1cc(S(=O)(=O)c2cccc(C)c2)c(=O)c2cc(F)c(N3CCOCC3)cc21 -6.54%
O=C(NCCc1ccccc1)c1ccc(CSc2nc3ccncc3n2Cc2ccc(F)cc2)cc1 -9.88%
CCOc1ccc(C(=O)Nc2cccc(OCc3cc(=O)n4cc(C)sc4n3)c2)cc1 -10.9%
CCCCOC(=O)c1cccc(NC(=O)c2cc3ccccc3o2)c1 -47.8%
O=C(Nc1ccc(Cl)cc1F)c1cc(S(=O)(=O)NCc2ccc3c(c2)OCO3)ccc1F -9.49%
CCc1ccc2oc(C(=O)Nc3sc4c(c3C(=O)NC)CCCC4)cc(=O)c2c1 4.27%
COc1cccc(CNCCSc2nnnn2C)c1OCc1ccccc1F -5.53%
COc1ccc(-c2nc3ccccc3o2)cc1NC(=O)COc1ccc(C(C)(C)C)cc1 -18.3%
CCOc1ccc(S(=O)(=O)NCC(c2ccco2)S(=O)(=O)c2ccc(F)cc2)cc1 (stereo not drawn) -17.3%
COc1cccc(N2CC(NC(=O)c3ccc(S(=O)(=O)N4CCCCC4)cc3)CC2=O)c1 (stereo not drawn) -21.2%
CCOC(=O)c1cc2c(=O)n3ccccc3nc2n(CC2CCCO2)c1=NC(=O)c1ccc(C)cc1 (stereo not drawn) -9.31%
O=[N+]([O-])c1ccc(C(c2sc3nc(-c4ccco4)nn3c2O)N2CCN(c3cccc(Cl)c3)CC2)cc1 (stereo not drawn) -9.28%
Cc1ccc(C)c(Cn2nc(-c3cc(C)ccc3C)ccc2=O)c1 -14.6%
CCOC(=O)c1c(S(=O)(=O)N2CCCC(C(=O)N3CCN(c4ccccc4)CC3)C2)c(C)n(C)c1C (stereo not drawn) -14.2%
Cc1ccccc1OC(=O)CSc1nnc(-c2cccs2)o1 -4.52%
COc1ccccc1NC(=O)CSc1oc(-c2cccs2)nc1S(=O)(=O)c1ccccc1 -29.7%
O=c1cc(CSc2n[nH]c(-c3ccccc3)n2)[nH]c2ccccc12 -5.78%
COc1cc(NC(=O)c2cc3c(=O)n(Cc4cccs4)ccc3nc2C)cc(OC)c1OC -12.3%
CC(Oc1ccccc1Cl)C(=O)N1CCN(CCc2ccccn2)CC1 (stereo not drawn) -15.9%
N=C(N=C(N)N)N1CCOCC1 -5.34%
Cc1nnc(NCc2ccccc2)c2c1nnn2Cc1ccc(F)cc1 -17%
CCc1cccc(NC(=O)Cn2nc(-c3cc(C)ccc3C)ccc2=O)c1 -2.38%
Cc1ccc(CN2C(=O)C3(c4ccccc42)N(c2cccc(C(F)(F)F)c2)C(=O)CS3(=O)=O)cc1 (stereo not drawn) -20.8%
O=C(NC1CCCCC1)c1ccc2c(c1)N(Cc1ccc(Cl)cc1)C(=O)c1ccccc1S2(=O)=O -14.9%
COc1ccc(OC)c(NC(=O)CN2C(=O)CCc3cc(S(=O)(=O)N4CCCCC4)ccc32)c1 -10%
O=C(CN1C(=O)COc2ccc(S(=O)(=O)N3CCOCC3)cc21)N1CCN(c2ccc(F)cc2)CC1 2.13%
CC(Sc1nc(=O)cc(N)n1CCc1ccccc1)C(=O)Nc1ccccc1C#N (stereo not drawn) -18.2%
CCN(Cc1ccccc1)C(=O)c1cc2c(s1)-c1c(C)cccc1OC2 -6.52%
Cc1ccc(Cl)cc1NC(=O)Cn1c(=O)n(Cc2ccc(C(=O)NCc3ccc4c(c3)OCO4)cc2)c(=O)c2ccccc21 -0.952%
CC(=O)c1cccc(NS(=O)(=O)c2ccc3c(c2)NC(=O)CC(=O)N3)c1 -6.22%
COc1cccc(N2CCN(C(=O)c3cnn(-c4ccc(C)cc4C)c3C3CCN(C(=O)OC(C)(C)C)CC3)CC2)c1 -12.6%
CC(=O)N1c2c(cc(Br)cc2S(=O)(=O)N2CCN(c3cccc(Cl)c3)CC2)CC1C (stereo not drawn) -2.15%
CCOc1ccc(-c2csc(/C(C#N)=C/c3ccc(Br)cc3)n2)cc1 -2.51%
CCN1CCN(c2c(S(=O)(=O)c3ccc(C)c(C)c3)cnc3ccc(F)cc23)CC1 -24%
COc1ccc(NC(=O)CSc2cc(-c3ccccc3)nc(C)n2)cc1 -1.39%
O=c1c2cnn(-c3ccc(Cl)cc3)c2ncn1Cc1cccc(C(F)(F)F)c1 -17.2%
Cc1nn(CC(=O)Nc2ccccc2F)c(=O)c2c(C)n(-c3ccc(Cl)cc3)nc12 -0.571%
Cc1ccc(-n2c(SCC(=O)Nc3cccc(C)c3)nc3c(oc4ccccc43)c2=O)cc1 -13.7%
CN1CCN(c2nc3c(S(=O)(=O)c4ccccc4)nnn3c3ccsc23)CC1 -5.26%
CCOC(=O)C1CCN(C(=O)CN2c3ccc(CC)cc3-c3ccccc3S2(=O)=O)CC1 -8.04%
Cc1nc([N+](=O)[O-])cn1-c1ccc([N+](=O)[O-])cc1 -12.7%
CCS(=O)(=O)c1ncc(N(Cc2ccc(F)cc2)Cc2ccco2)c(C(=O)Nc2cc(C)ccc2C)n1 -2.31%
CCC(=O)Nc1ccc2nc(SCCOc3ccc(C)cc3)sc2c1 -8.86%
CCCn1c(NCc2ccc(N(CC)CC)cc2)nc2ccccc21 -8.75%
CCCN(CCC)C(=O)Cn1c(=O)n(-c2ccc(OC)cc2)c(=O)c2ccc(C(=O)NCc3ccc(C)cc3)cc21 -12.8%
Cc1cc(OI)c(C(C)C)cc1-c1cc(C(C)C)c(OI)cc1C -19.9%
COc1cccc(-c2ccc3c(N)c(C(=O)Nc4cc(F)ccc4F)sc3n2)c1 -10.3%
CO[C@@H]1[C@@H](O[C@@H]2O[C@H](C)[C@@H](O[C@H]3C[C@@](C)(O)[C@@H](O)[C@H](C)O3)[C@H](N(C)C)[C@H]2O)[C@@H](CC=O)C[C@@H](C)[C@@H](O[C@@H]2CC[C@H](N(C)C)[C@@H](C)O2)/C=C/C=C/C[C@@H](C)OC(=O)C[C@H]1OC(C)=O -13.3%
